Laboratory results from PubChem BioAssay AID360 (National Center for Advancing Translational Sciences (NCATS), 2006).
About 550 (1.1%) of roughly 48,000 compounds were called active. Roughly 4% stayed inconclusive and do not appear here. Rule as the data show it: active = potency below about 15 µM; inconclusive = mostly about 16 µM to 33 µM; inactive = weaker than that. This is one part of the list.

These compounds were tested against Lysosomal acid glucosylceramidase (Homo sapiens) (UniProt P04062) (assay: Glucocerebrosidase). Conditions: purified enzyme, resorufin glucoside fluorescence (screen aimed at inhibitors), 20 min.
Summary of the method: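 Normal human glucocerebrosidase (0.2 nM final) was assayed with resorufin β-D-glucopyranoside (30 uM final) in 50mM citric acid/KH2PO4, 10mM sodium taurocholate, 0.01% tween-20, pH 5.9. Compounds were titrated; fluorescence (Ex 548, Em 600) read after 20 min at RT.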
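Also: the screen sought inhibitors.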
Potency is read from the fitted curve at half-maximal effect.

Sequence of UniProt P04062 (P04062 whole entry, looked up): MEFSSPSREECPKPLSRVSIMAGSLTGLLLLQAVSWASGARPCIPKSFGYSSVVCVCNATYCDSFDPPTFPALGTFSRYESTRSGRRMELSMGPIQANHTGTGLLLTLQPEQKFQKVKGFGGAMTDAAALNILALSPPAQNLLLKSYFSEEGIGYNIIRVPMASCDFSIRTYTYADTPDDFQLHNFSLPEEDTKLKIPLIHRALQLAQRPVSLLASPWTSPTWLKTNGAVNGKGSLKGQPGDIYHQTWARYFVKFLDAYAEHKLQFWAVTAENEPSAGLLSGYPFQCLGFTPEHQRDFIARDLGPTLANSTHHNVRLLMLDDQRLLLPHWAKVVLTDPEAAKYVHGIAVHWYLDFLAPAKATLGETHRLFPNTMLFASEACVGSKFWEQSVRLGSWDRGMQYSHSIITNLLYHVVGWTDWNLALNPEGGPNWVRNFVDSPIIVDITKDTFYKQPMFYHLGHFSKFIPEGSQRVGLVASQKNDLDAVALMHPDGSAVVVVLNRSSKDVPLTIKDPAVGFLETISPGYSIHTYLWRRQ

Potency, inactive:
Cc1nc(NC(=O)C23CCC(C)(C(=O)O2)C3(C)C)sc1C (configuration not stated) > 76.9 µM
COc1ccc(CCNC(=O)CN2C(=O)C3(OCCCO3)c3ccccc32)cc1OC > 76.9 µM
CCOC(=O)N1CCN(S(=O)(=O)c2ccc(OC)c(Cl)c2Cl)CC1 > 76.9 µM
COCCN(C(C)=O)c1nnc(-c2ccccn2)s1 > 76.9 µM
COCCCn1c(SCC(N)=O)nnc1-c1ccccc1 > 76.9 µM
Cc1ccccc1-n1nc2c(c1NC(=O)c1c(-c3ccccc3Cl)noc1C)CSC2 > 76.9 µM
CCCC(=O)Nc1cc(Cl)ccc1N1CCN(C(=O)CC)CC1 > 76.9 µM
CCn1c(SCC(=O)c2cc(OC)ccc2OC)nnc1-c1ccncc1 > 76.9 µM
COC(=O)c1oc2c(c1C)C1(CCC2)SCCS1 > 76.9 µM
CC1(C)Cc2noc(N)c2C(C)(C)N1OC(=O)c1ccco1 > 76.9 µM
CN(C)CC(C(=O)c1ccccc1)c1ccccc1 (configuration not stated) > 76.9 µM
COc1ccc(C2C3=C(CC(C)(C)CC3=O)Oc3ncn4nc(-c5cccnc5)nc4c32)cc1 (configuration not stated) > 76.9 µM
CSc1ccccc1C(=O)NCCSC(C)(C)C > 76.9 µM
Cc1cc2cc(CN(Cc3nnnn3C3CCCCC3)CC3CCCO3)c(=O)[nH]c2cc1C (configuration not stated) > 76.9 µM
Clc1cccc(Cl)c1COc1ccncc1 > 76.9 µM
O=C(NCCCN1CCCC1=O)c1ccc2c(=O)n(Cc3ccco3)c(=S)[nH]c2c1 > 76.9 µM
COc1ccccc1-c1nc(-c2ccncc2)no1 > 76.9 µM
Cn1nnnc1Sc1ncnc2scc(-c3ccc(F)cc3)c12 > 76.9 µM
COc1ccc(C2=NOC(C(=O)Nc3ccc(C(C)=O)cc3)C2)cc1OC (configuration not stated) > 76.9 µM
CN(C)c1ccc(C(c2nnnn2C(C)(C)C)N2CCN(C(=O)c3ccco3)CC2)cc1 (configuration not stated) > 76.9 µM
O=C(c1n[nH]c(=O)c2ccccc12)N1CCN(c2ccc(F)cc2)CC1 > 76.9 µM
CC1CCN(c2nc3c(c(=O)n(C)c(=O)n3C)n2CCSc2nc3ccccc3o2)CC1 > 76.9 µM
COC(=O)Nc1ccc(C)cc1NC(=O)OC > 76.9 µM
CCOC(=O)CN1CC23C=CC(O2)C(C(=O)Nc2ccc(F)cc2)C3C1=O (configuration not stated) > 76.9 µM
Nc1ncnc2c1ncn2CCN1CCOCC1 > 76.9 µM
CCCn1c(=O)c(C(=O)Nc2nnc(C)s2)c(O)c2ccccc21 > 76.9 µM
Clc1ccc(Cn2cc(Br)cn2)cc1Cl > 76.9 µM
C/C(=N\O)C(C)/[N+]([O-])=C/c1nc(C)c(C)n1O (configuration not stated) > 76.9 µM
CC(=O)CCc1oc2ccc(NC(C)=O)cc2c1-c1ccc(C)o1 > 76.9 µM
O=c1c2c3n(c(=O)nc2[nH]n1-c1ccccc1)CCCCC3 > 76.9 µM
C=CCN(C(=O)CCC(=O)Nc1cc(C)on1)C(C(=O)NC(C)(C)C)c1cccc(OC)c1OC (configuration not stated) > 76.9 µM
O=C(CSc1nnnn1Cc1ccccc1)c1ccccc1 > 76.9 µM
COCCOC(=O)C1=C(C)NC(=O)NC1c1c(OC)ncnc1OC (configuration not stated) > 76.9 µM
CCOC(=O)c1cc2c(n(-c3ccc(C)cc3)c1=O)CCCC2=O > 76.9 µM
CCNC(=O)NC(=O)CSc1ccc(NC(C)=O)cc1 > 76.9 µM
O=C(Cn1nnc(-c2ccncc2)n1)Nc1ccc2c(c1)CCC2 > 76.9 µM
O=C(COc1ccccc1)N(Cc1ccco1)C1CCS(=O)(=O)C1 (configuration not stated) > 76.9 µM
CCOC(=O)N1CCN(C(=O)Cn2ncn3nc(-c4cccs4)cc3c2=O)CC1 > 76.9 µM
O=C(CN(C(=O)CCC(=O)Nc1nccs1)c1cccc(F)c1)NCC1CCCO1 (configuration not stated) > 76.9 µM
CCS(=O)(=O)N1CCC(C(=O)NC2CCCCC2)CC1 > 76.9 µM
O=CNCC(=O)NCCc1ccc(Cl)cc1 > 76.9 µM
CC(=O)C1C(c2ccc3ncccc3c2)NC(=O)NC1(O)C(F)(F)F (configuration not stated) > 76.9 µM
O=c1c2[nH]c3cccc(Cl)c3c2ncn1CCN1CCCCC1 > 76.9 µM
Cc1cc(C)cc(N(C(C)C(=O)N2CCCCC2)S(C)(=O)=O)c1 (configuration not stated) > 76.9 µM
CCN(CC)C(=O)c1sc(NC(=O)c2ccco2)c(C#N)c1C > 76.9 µM
CCOC(=O)N1CCN(C(=O)c2cn(C)c(=O)c3c2c2ccccc2n3C)CC1 > 76.9 µM
NC(=O)c1cc2ccc(O)cc2oc1=NCc1ccccc1
COc1ccc(C(=O)NCc2cn3ccccc3n2)cc1 > 76.9 µM
Cc1cc(NC(=O)CCN2C(=O)c3ccccc3C2=O)no1 > 76.9 µM
C=CCOC(=O)C(C#N)c1nc2ccccc2nc1N1CCN(Cc2ccccc2)CC1 (configuration not stated)
Cc1ccc(N2C(=O)NC3(CCCCC3)C2=O)cc1 > 76.9 µM
CC(C)(C)C(=O)c1sc(Nc2ccccc2)nc1N > 76.9 µM
O=C(O)CN1C(=O)c2cccc(Oc3ccc(Cl)cc3)c2C1=O > 76.9 µM
Cc1ccc(-n2c(=O)[nH]c3c(C(N)=O)nc(-c4ccc(C)o4)nc32)cc1 > 76.9 µM
CC(C)CCn1c(SCC#N)nc2c(sc3ccccc32)c1=O > 76.9 µM
CCOCCCN1C(=O)CN(C2CCCCCC2)C(=O)C1c1ccc(OC)cc1 (configuration not stated) > 76.9 µM
C=CCn1c(SCc2csc(C)n2)nc2sc3c(c2c1=O)CCCCC3 > 76.9 µM
Nc1c(C(O)(C(F)(F)F)C(F)(F)F)ccc2ccccc12
CC(C)C[C@H](NC(=O)N1CCN(c2ccccc2)CC1)C(=O)O > 76.9 µM
CCCN1C2=NCCN2c2ccccc21 > 76.9 µM
O=C(CN1C(=O)c2ccccc2S1(=O)=O)N1CCN(c2ccccc2)CC1 > 76.9 µM
CCCCNS(=O)(=O)c1cccc(S(=O)(=O)N2CCCC2)c1 > 76.9 µM
COCc1cc(=O)n2c(-c3ccccc3OC)n[nH]c2n1 > 76.9 µM
Cc1cccc(N(Cc2nnc3n2CCCCC3)C(=O)Nc2ccccc2)c1 > 76.9 µM
CNC(=O)C1CCC(=O)N1Cc1ccc(C)cc1 (configuration not stated) > 76.9 µM
CCc1ccc2[nH]c(=O)c(CN(CCCN3CCOCC3)C(=O)Nc3ccc(Cl)cc3)cc2c1
Cc1csc(SCC(=O)N2CCN(S(=O)(=O)c3ccc(Cl)cc3)CC2)n1 > 76.9 µM
O=C1CN(C(=O)CN2CCCC2)C(c2ccccc2)c2cc(Br)ccc2N1 (configuration not stated) > 76.9 µM
CN1C(=O)C(O)(c2sc(N)nc2-c2ccccc2)c2ccccc21 (configuration not stated) > 76.9 µM
COc1ccc(C(=O)Nc2cc(OC)ccc2OC)cc1 > 76.9 µM
COc1nc(-c2ccccc2)cc(-c2ccccc2)n1 > 76.9 µM
CCN(CC)CCCN1C(=O)C(=O)/C(=C(/O)c2cnn(-c3ccccc3)c2C)C1c1ccncc1 (configuration not stated) > 76.9 µM
COc1ccc(-c2noc(CCC(N)=O)n2)cc1OC > 76.9 µM
Cc1cc(C)n(CC(O)COCc2ccco2)n1 (configuration not stated) > 76.9 µM
COc1ccc(CCNC(=O)CSc2nnc(Cn3c(=O)sc4ccccc43)n2C)cc1OC > 76.9 µM
CCC(=O)Nc1nonc1-c1nc2ccccc2n1CC(C)C > 76.9 µM
Cn1nnnc1SCc1ccc(C(=O)Nc2nccs2)cc1 > 76.9 µM
CCOc1ccc(C2C(C(=O)c3ccco3)=C(O)C(=O)N2Cc2cccnc2)cc1 (configuration not stated) > 76.9 µM
O=c1c2ccccc2nnn1CSc1nc2cc(Cl)ccc2c(=O)n1Cc1ccco1 > 76.9 µM
Cc1ccc(-c2noc(CCC(=O)N3CCN(c4cccc(C(F)(F)F)c4)CC3)n2)cc1 > 76.9 µM
O=C(CSc1n[nH]c(-c2ccncc2)n1)NC1CCS(=O)(=O)C1 (configuration not stated) > 76.9 µM
Cc1sc2nc3c(C(=O)N4CCN(c5ncccn5)CC4)cccn3c(=O)c2c1C > 76.9 µM
CN(C)CCCN1C(=O)C(=O)/C(=C(/O)c2ccc3c(c2)OCO3)C1c1ccccn1 (configuration not stated) > 76.9 µM
COc1cc(NC(=O)CN(C)S(=O)(=O)c2ccc(C)cc2)cc(OC)c1
Cc1nc(C)c2c(c1C(F)(F)F)-c1ccccc1C2(F)F > 76.9 µM
CC(C)COC(=O)NCCOC(=O)Nc1cccc(Cl)c1 > 76.9 µM
CCSc1nc(-c2ccccc2)c(C#N)c(=O)[nH]1 > 76.9 µM
CSc1ccccc1NC(=O)CSc1nnnn1-c1ccccc1SC > 76.9 µM
Cc1ccc(C(=O)NCc2occc2C(=O)O)o1 > 76.9 µM
Cc1oc(C(C)(C)C)c(CN2CCCC2)c1C(=O)O > 76.9 µM
O=C(Cn1ncc2c(=O)oc3ccccc3c21)NC1CC1 > 76.9 µM
CCCc1cc2c(cc1NS(=O)(=O)c1ccc(CCNC(C)=O)cc1)OCO2 > 76.9 µM
